According to the supplement of paper PMC6828730:
Structures can show the parent of a compound that is named as a salt. The list shows a part of the results. Repeats are few or missing, and single values can be far off.

Test system: hiPSC-derived cardiomyocytes
Assay: time to death of most cells in well after compound addition (days); higher = less cardiotoxic; extreme values may be limits of the assay
Details: screen: 4; 10 µM

Structure (SMILES) | time to death of most cells in well
O=C(O)[C@]1(Cc2cccc(Nc3nccs3)n2)CC[C@@H](Oc2cccc(Cl)c2F)CC1 | > 7
COc1ccc(CNC(=O)Nc2ncc([N+](=O)[O-])s2)cc1 | > 7
O=c1c(O)c(-c2ccc(O)c(O)c2)oc2cc(O)cc(O)c12 [Quercetin] | > 7
Cn1cc(C2=C(c3ccc(Cl)cc3Cl)C(=O)NC2=O)c2ccccc21 | > 7
COc1cc(N2CCC(N3CCN(C)CC3)CC2)ccc1Nc1ncnc(Nc2ccccc2S(=O)(=O)C(C)C)n1 | > 7
COc1ccc(-c2cc3c(C)nc(N)nc3n([C@H]3CC[C@H](OCCO)CC3)c2=O)cn1 | > 7
C=CC(=O)Nc1cccc(Oc2nc(Nc3ccc(N4CCN(C)CC4)cc3OC)ncc2Cl)c1 | > 7
CN1CCN(c2ccc3nc(-c4c(N)c5c(F)cccc5[nH]c4=O)[nH]c3c2)CC1 [Dovitinib (TKI-258) Dilactic Acid] | 2
N#Cc1c(O)c2c(-c3ccc(-c4ccccc4O)cc3)csc2[nH]c1=O | > 7
Cn1cc(-c2ccc3nnc(C(F)(F)c4ccc5ncccc5c4)n3n2)cn1 | > 7
O=C(O)CCC(=O)Nc1ccc(Br)cn1 [Bikinin] | > 7
CN1CCC(Nc2nc(Nc3ccc(Oc4ccccc4)cc3)c3c(=O)[nH]cc(Br)c3n2)CC1 | > 7
O=C(NOCC(O)CO)c1cc(Br)c(F)c(F)c1Nc1ccc(I)cc1F (stereo not drawn) | > 7
Cc1nc(N)sc1-c1ccnc(Nc2ccc(N3CCOCC3)cc2)n1 | > 7
CC(C)(C#N)c1ccc(N2C(=O)OCc3cnc4ccc(-c5cnc6ccccc6c5)cc4c32)cc1 | > 7
C[C@]1(O)C[C@@H](c2nc(-c3ccc4ccc(-c5ccccc5)nc4c3)c3c(N)nccn32)C1 [Linsitinib (OSI-906)] | > 7
CCCS(=O)(=O)Nc1ccc(F)c(C(=O)c2c[nH]c3ncc(-c4ccc(Cl)cc4)cc23)c1F [Vemurafenib (PLX4032, RG7204)] | > 7
OCCn1cc(-c2cnc3nnn(Cc4ccc5ncccc5c4)c3n2)cn1 | > 7
COc1ccc(-c2nc(N3CCOCC3)c3sc(CN(C)c4ncc(C(=O)NO)cn4)cc3n2)cn1 | 5

Structure (SMILES) | time to death of most cells in well
CNC(=O)c1cccc(-c2ccc3c(N4CCOC[C@@H]4C)nc(N4CCOC[C@@H]4C)nc3n2)c1 [Vistusertib (AZD2014)] | > 7
COc1cc2ncnc(Nc3cccc(Cl)c3F)c2cc1OC(=O)N1CCN(C)C[C@H]1C | > 7
O=C(Nc1cccc(Cl)c1)Nc1ncc(CCNc2ncnc3ccsc23)s1 [SNS-314 Mesylate] | > 7
C=CC(=O)Nc1cccc(Sc2nc(Nc3ccc(N4CCN(C)CC4)cc3)ncc2Cl)c1 | 6.5
COc1ccc2c(c1)/C(=C/c1cnc[nH]1)C(=O)N2 | > 7
CC(C)(C)c1cc(C=C(C#N)C#N)cc(Br)c1O | > 7
C[C@H](NC(=O)/C(C#N)=C/c1cccc(Br)n1)c1ccccc1 | > 7
COc1cc2c(Oc3ccc4[nH]c(C)cc4c3F)ncnc2cc1OCCCN1CCCC1 [Cediranib (AZD2171)] | 1.5
COc1c(C)c(C(=O)c2ccc(N)c(C(=O)O)c2)n2ccccc12 | > 7
COc1ncc(-c2ccc3nccc(-c4ccnnc4)c3c2)cc1NS(=O)(=O)c1ccc(F)cc1F | > 7
COc1ccccc1-c1cc(Nc2cccc(CS(N)(=O)=O)c2)ncn1 | > 7
CN1CCC(CNc2ccc3ncc(-c4cccc(OC(F)(F)F)c4)n3n2)CC1 [SGI-1776 free base] | 1
O=C(Nc1nc2cccc(-c3ccc(CN4CCS(=O)(=O)CC4)cc3)n2n1)C1CC1 [Filgotinib (GLPG0634)] | > 7
CC(=O)c1c(C)c2cnc(Nc3ccc(N4CCNCC4)cn3)nc2n(C2CCCC2)c1=O | > 7
COc1cc2c(c(OC)c1OC)-c1c(cc3c(c1OC)OCO3)CC(C)C(C)C2 (stereo not drawn) [Schisandrin B (Sch B)] | > 7
O=c1ncn2nc(Sc3ccc(F)cc3F)ccc2c1-c1c(Cl)cccc1Cl | > 7
CN1CCN(c2nc(C3=C(c4c[nH]c5ccccc45)C(=O)NC3=O)c3ccccc3n2)CC1 [Sotrastaurin] | > 7
COc1cc2ncnc(Oc3ccc(CC(=O)Nc4cnn(C(C)C)c4)cc3)c2cc1OC | > 7
Clc1ccc(Nc2nnc(Cc3ccncc3)c3ccccc23)cc1 [Vatalanib (PTK787) 2HCl] | > 7
